Experimental data published in the supplement of paper PMC8728848.
The list shows a part of the results.

How the values were obtained:
Assay in all cases: glycan array binding signal (z-score within array); higher = stronger binding
Details in all cases: glycan notation: IUPAC condensed, linker removed
[1] = target: Gal(b1-4)GlcNAc(b1-3)Gal(b1-4)GlcNAc(b1-2)[Gal(b1-4)GlcNAc(b1-3)Gal(b1-4)GlcNAc(b1-6)]Man(a1-6)[Gal(b1-4)GlcNAc(b1-3)Gal(b1-4)GlcNAc(b1-2)Man(a1-3)]Man(b1-4)GlcNAc(b1-4)GlcNAc
Summary of the method: (§1)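 Glycan array binding is given as a within-array Z-score, which can be read as non-binding when negative. The arrays, 3228 of them, came from the Consortium for Functional Glycomics database and were retained only where the protein sequence was available. Z-scores were averaged across arrays of the same protein sequence at different concentrations or buffers and across linkers.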

[2] = target: Gal(b1-4)GlcNAc(b1-3)Gal(b1-4)GlcNAc(b1-2)[Gal(b1-4)GlcNAc(b1-3)Gal(b1-4)GlcNAc(b1-6)]Man(a1-6)[Gal(b1-4)GlcNAc(b1-3)Gal(b1-4)GlcNAc(b1-2)Man(a1-3)]Man(b1-4)GlcNAc(b1-4)[Fuc(a1-6)]GlcNAc
Summary of the method: as §1

[3] = target: Gal(b1-4)GlcNAc(b1-3)Gal(b1-4)GlcNAc(b1-3)Gal(b1-4)GlcNAc
Summary of the method: as §1

[4] = target: Gal(b1-4)GlcNAc(b1-3)Gal(b1-4)GlcNAc(b1-3)Gal(b1-4)GlcNAc(b1-2)Man(a1-3)[Gal(b1-4)GlcNAc(b1-3)Gal(b1-4)GlcNAc(b1-3)Gal(b1-4)GlcNAc(b1-2)Man(a1-6)]Man(b1-4)GlcNAc(b1-4)GlcNAc
Summary of the method: as §1

[5] = target: Gal(b1-4)GlcNAc(b1-3)Gal(b1-4)GlcNAc(b1-3)Gal(b1-4)GlcNAc(b1-2)Man(a1-3)[Gal(b1-4)GlcNAc(b1-3)Gal(b1-4)GlcNAc(b1-3)Gal(b1-4)GlcNAc(b1-2)Man(a1-6)]Man(b1-4)GlcNAc(b1-4)[Fuc(a1-6)]GlcNAc
Summary of the method: as §1

[6] = target: Gal(b1-4)GlcNAc(b1-3)Gal(b1-4)GlcNAc(b1-3)Gal(b1-4)GlcNAc(b1-2)[Gal(b1-4)GlcNAc(b1-3)Gal(b1-4)GlcNAc(b1-3)Gal(b1-4)GlcNAc(b1-6)]Man(a1-6)[Gal(b1-4)GlcNAc(b1-3)Gal(b1-4)GlcNAc(b1-3)Gal(b1-4)GlcNAc(b1-2)Man(a1-3)]Man(b1-4)GlcNAc(b1-4)[Fuc(a1-6)]GlcNAc
Summary of the method: as §1

[7] = target: Gal(b1-4)GlcNAc(b1-3)Gal(b1-4)GlcNAc(b1-3)Gal(b1-4)GlcNAc(b1-3)Gal(b1-4)GlcNAc(b1-2)Man(a1-3)[Gal(b1-4)GlcNAc(b1-3)Gal(b1-4)GlcNAc(b1-3)Gal(b1-4)GlcNAc(b1-3)Gal(b1-4)GlcNAc(b1-2)Man(a1-6)]Man(b1-4)GlcNAc(b1-4)GlcNAc
Summary of the method: as §1

[8] = target: Gal(b1-4)GlcNAc(b1-3)Gal(b1-4)GlcNAc(b1-3)Gal(b1-4)GlcNAc(b1-3)Gal(b1-4)GlcNAc(b1-2)Man(a1-3)[Gal(b1-4)GlcNAc(b1-3)Gal(b1-4)GlcNAc(b1-3)Gal(b1-4)GlcNAc(b1-3)Gal(b1-4)GlcNAc(b1-2)Man(a1-6)]Man(b1-4)GlcNAc(b1-4)[Fuc(a1-6)]GlcNAc
Summary of the method: as §1

[9] = target: Gal(b1-4)GlcNAc(b1-3)Gal(b1-4)GlcNAc(b1-3)Gal(b1-4)GlcNAc(b1-3)Gal(b1-4)GlcNAc(b1-2)[Gal(b1-4)GlcNAc(b1-3)Gal(b1-4)GlcNAc(b1-3)Gal(b1-4)GlcNAc(b1-3)Gal(b1-4)GlcNAc(b1-6)]Man(a1-6)[Gal(b1-4)GlcNAc(b1-3)Gal(b1-4)GlcNAc(b1-3)Gal(b1-4)GlcNAc(b1-3)Gal(b1-4)GlcNAc(b1-2)Man(a1-3)]Man(b1-4)GlcNAc(b1-4)[Fuc(a1-6)]GlcNAc
Summary of the method: as §1

[10] = target: Gal(b1-4)GlcNAc(b1-3)Gal(b1-4)GlcNAc(b1-3)Gal(b1-4)GlcNAc(b1-3)Gal(b1-4)GlcNAc(b1-3)Gal(b1-4)GlcNAc(b1-2)Man(a1-3)[Gal(b1-4)GlcNAc(b1-3)Gal(b1-4)GlcNAc(b1-3)Gal(b1-4)GlcNAc(b1-3)Gal(b1-4)GlcNAc(b1-3)Gal(b1-4)GlcNAc(b1-2)Man(a1-6)]Man(b1-4)GlcNAc(b1-4)GlcNAc
Summary of the method: as §1

[11] = target: Gal(b1-4)GlcNAc(b1-3)Gal(b1-4)GlcNAc(b1-3)Gal(b1-4)GlcNAc(b1-3)Gal(b1-4)GlcNAc(b1-3)Gal(b1-4)GlcNAc(b1-2)Man(a1-3)[Gal(b1-4)GlcNAc(b1-3)Gal(b1-4)GlcNAc(b1-3)Gal(b1-4)GlcNAc(b1-3)Gal(b1-4)GlcNAc(b1-3)Gal(b1-4)GlcNAc(b1-2)Man(a1-6)]Man(b1-4)GlcNAc(b1-4)[Fuc(a1-6)]GlcNAc
Summary of the method: as §1

[12] = target: Gal(b1-4)GlcNAc(b1-3)Gal(b1-4)GlcNAc(b1-3)Gal(b1-4)GlcNAc(b1-3)Gal(b1-4)GlcNAc(b1-3)Gal(b1-4)GlcNAc(b1-2)[Gal(b1-4)GlcNAc(b1-3)Gal(b1-4)GlcNAc(b1-3)Gal(b1-4)GlcNAc(b1-3)Gal(b1-4)GlcNAc(b1-3)Gal(b1-4)GlcNAc(b1-6)]Man(a1-6)[Gal(b1-4)GlcNAc(b1-3)Gal(b1-4)GlcNAc(b1-3)Gal(b1-4)GlcNAc(b1-3)Gal(b1-4)GlcNAc(b1-3)Gal(b1-4)GlcNAc(b1-2)Man(a1-3)]Man(b1-4)GlcNAc(b1-4)[Fuc(a1-6)]GlcNAc
Summary of the method: as §1

[13] = target: Gal(b1-4)GlcNAc(b1-3)Gal(b1-4)GlcNAc(b1-3)Gal(b1-4)GlcNAc(b1-3)Gal(b1-4)GlcNAc(b1-3)Gal(b1-4)GlcNAc(b1-3)Gal(b1-4)GlcNAc(b1-2)Man(a1-3)[Gal(b1-4)GlcNAc(b1-3)Gal(b1-4)GlcNAc(b1-3)Gal(b1-4)GlcNAc(b1-3)Gal(b1-4)GlcNAc(b1-3)Gal(b1-4)GlcNAc(b1-3)Gal(b1-4)GlcNAc(b1-2)Man(a1-6)]Man(b1-4)GlcNAc(b1-4)GlcNAc
Summary of the method: as §1

[14] = target: Gal(b1-4)GlcNAc(b1-3)Gal(b1-4)GlcNAc(b1-3)GalNAc
Summary of the method: as §1

[15] = target: Gal(b1-4)GlcNAc(b1-3)Gal(b1-4)GlcNAc(b1-3)[Gal(b1-4)GlcNAc(b1-3)Gal(b1-4)GlcNAc(b1-6)]GalNAc
Summary of the method: as §1

[16] = target: Gal(b1-4)GlcNAc(b1-3)Gal(b1-4)GlcNAc(b1-6)[Gal(b1-3)]GalNAc
Summary of the method: as §1

[17] = target: Gal(b1-4)GlcNAc(b1-3)Gal(b1-4)[Fuc(a1-3)]GlcNAc(b1-3)Gal(b1-4)[Fuc(a1-3)]GlcNAc
Summary of the method: as §1

[18] = target: Gal(b1-4)GlcNAc(b1-3)GalNAc
Summary of the method: as §1

[19] = target: Gal(b1-4)GlcNAc(b1-3)[Fuc(a1-3)GlcNAc(b1-6)]Gal(b1-4)Glc
Summary of the method: as §1

[20] = target: Gal(b1-4)GlcNAc(b1-3)[Gal(b1-4)GlcNAc(b1-6)]Gal(b1-4)GlcNAc
Summary of the method: as §1

[21] = target: Gal(b1-4)GlcNAc(b1-3)[GlcNAc(b1-6)]Gal(b1-4)GlcNAc
Summary of the method: as §1

[22] = target: Gal(b1-4)GlcNAc(b1-6)Gal(b1-4)GlcNAc
Summary of the method: as §1

[23] = target: Gal(b1-4)GlcNAc(b1-6)GalNAc
Summary of the method: as §1

[24] = target: Gal(b1-4)GlcNAc(b1-6)[Gal(b1-3)]GalNAc
Summary of the method: as §1

[25] = target: Gal(b1-4)GlcNAc(b1-6)[Gal(b1-4)GlcNAc(b1-3)]GalNAc
Summary of the method: as §1

Gal(b1-4)GlcNAc6P = target: Gal(b1-4)GlcNAc6P
Summary of the method: as §1

Gal(b1-6)Gal = target: Gal(b1-6)Gal
Summary of the method: as §1

Gal3S(b1-3)GalNAc = target: Gal3S(b1-3)GalNAc
Summary of the method: as §1

Gal3S(b1-3)GlcNAc = target: Gal3S(b1-3)GlcNAc
Summary of the method: as §1

[26] = target: Gal3S(b1-3)[Fuc(a1-4)]GlcNAc
Summary of the method: as §1

Gal3S(b1-4)Glc = target: Gal3S(b1-4)Glc
Summary of the method: as §1

Gal3S(b1-4)Glc6S = target: Gal3S(b1-4)Glc6S
Summary of the method: as §1

Gal3S(b1-4)GlcNAc = target: Gal3S(b1-4)GlcNAc
Summary of the method: as §1

[27] = target: Gal3S(b1-4)[Fuc(a1-3)]Glc6S
Summary of the method: as §1

[28] = target: Gal3S(b1-4)[Fuc(a1-3)]GlcNAc
Summary of the method: as §1

[29] = target: Gal3S(b1-4)[Fuc(a1-3)]GlcNAc6S
Summary of the method: as §1

Gal3S4S(b1-4)GlcNAc = target: Gal3S4S(b1-4)GlcNAc
Summary of the method: as §1

Gal3S6S(b1-4)GlcNAc = target: Gal3S6S(b1-4)GlcNAc
Summary of the method: as §1

Gal3S6S(b1-4)GlcNAc6S = target: Gal3S6S(b1-4)GlcNAc6S
Summary of the method: as §1

Gal4S(b1-4)GlcNAc = target: Gal4S(b1-4)GlcNAc
Summary of the method: as §1

Gal4S6S(b1-4)GlcNAc = target: Gal4S6S(b1-4)GlcNAc
Summary of the method: as §1

Gal6P(b1-4)GlcNAc = target: Gal6P(b1-4)GlcNAc
Summary of the method: as §1

Gal6S(b1-3)GlcNAc = target: Gal6S(b1-3)GlcNAc
Summary of the method: as §1

Gal6S(b1-3)GlcNAc6S = target: Gal6S(b1-3)GlcNAc6S
Summary of the method: as §1

Gal6S(b1-4)Glc = target: Gal6S(b1-4)Glc
Summary of the method: as §1

B1: PNGase F (Flavobacterium meningosepticum) (protein)
chain: GIPAPADNTVNIKTFDKVKNAFGDGLSQSAEGTFTFPADVTAVKTIKMFIKNECPNKTCDEWDRYANVYVKNKTTGEWYEIGRFITPYWVGTEKLPRGLEIDVTDFKSLLSGNTELKIYTETWLAKGREYSVDFDIVYGTPDYKYSAVVPVVQYNKSSIDGVPYGKAHTLALKKNIQLPTNTEKAYLRTTISGWGHAKPYDAGSRGCAEWCFRTHTIAINNSNTFQHQLGALGCSANPINNQSPGNWTPDRAGWCPGMAVPTRIDVLNNSLIGSTFSYEYKFQNWTNNGTNGDAFYAISSFVIAKSNTPISAPVVTNLDPHHHHHH
glycan array binding signal (z-score) [1]: 1.63 | glycan array binding signal (z-score) [2]: -0.11 | glycan array binding signal (z-score) [3]: -0.342 | glycan array binding signal (z-score) [4]: 0.002 | glycan array binding signal (z-score) [5]: 0.156 | glycan array binding signal (z-score) [6]: -0.178 | glycan array binding signal (z-score) [7]: -0.24 | glycan array binding signal (z-score) [8]: -0.287 | glycan array binding signal (z-score) [9]: -0.301 | glycan array binding signal (z-score) [10]: -0.215 | glycan array binding signal (z-score) [11]: 0.136 | glycan array binding signal (z-score) [12]: -0.305 | glycan array binding signal (z-score) [13]: -0.299 | glycan array binding signal (z-score) [14]: -0.212 | glycan array binding signal (z-score) [15]: -0.122 | glycan array binding signal (z-score) [16]: -0.167 | glycan array binding signal (z-score) [17]: -0.23 | glycan array binding signal (z-score) [18]: -0.281 | glycan array binding signal (z-score) [19]: -0.214 | glycan array binding signal (z-score) [20]: -0.219 | glycan array binding signal (z-score) [21]: 1.78 | glycan array binding signal (z-score) [22]: -0.044 | glycan array binding signal (z-score) [23]: -0.228 | glycan array binding signal (z-score) [24]: 1.14 | glycan array binding signal (z-score) [25]: -0.289 | glycan array binding signal (z-score) (Gal(b1-4)GlcNAc6P): 0.41 | glycan array binding signal (z-score) (Gal(b1-6)Gal): 0.208 | glycan array binding signal (z-score) (Gal3S(b1-3)GalNAc): -0.135 | glycan array binding signal (z-score) (Gal3S(b1-3)GlcNAc): -0.054 | glycan array binding signal (z-score) [26]: -0.01 | glycan array binding signal (z-score) (Gal3S(b1-4)Glc): 0.503 | glycan array binding signal (z-score) (Gal3S(b1-4)Glc6S): 0.204 | glycan array binding signal (z-score) (Gal3S(b1-4)GlcNAc): 0.011 | glycan array binding signal (z-score) [27]: -0.038 | glycan array binding signal (z-score) [28]: -0.198 | glycan array binding signal (z-score) [29]: 0.165 | glycan array binding signal (z-score) (Gal3S4S(b1-4)GlcNAc): -0.092 | glycan array binding signal (z-score) (Gal3S6S(b1-4)GlcNAc): -0.105 | glycan array binding signal (z-score) (Gal3S6S(b1-4)GlcNAc6S): -0.035 | glycan array binding signal (z-score) (Gal4S(b1-4)GlcNAc): -0.324 | glycan array binding signal (z-score) (Gal4S6S(b1-4)GlcNAc): -0.234 | glycan array binding signal (z-score) (Gal6P(b1-4)GlcNAc): 0.103 | glycan array binding signal (z-score) (Gal6S(b1-3)GlcNAc): -0.271 | glycan array binding signal (z-score) (Gal6S(b1-3)GlcNAc6S): -0.051 | glycan array binding signal (z-score) (Gal6S(b1-4)Glc): 0.078
